Assay results published in the supplement of paper PMC5919970.
Counter-ions that a name gives are not always drawn. Whole data set: some 2,000 compounds, median “fractional viability relative to vehicle” near 0.91, cut for the lowest 2% near 0.045. The list shows a part of the results.

Test system: TYKNU
Experiment: fractional viability relative to vehicle; TYKNU is a high-grade serous ovarian cancer line; higher = less growth inhibition
Details: 72 h
Method in brief: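 Drug treatment lasted 72 h, with cells grown at 37 °C in 5% CO2 in RPMI 1640 supplemented with 10% FBS. Beforehand, TYKNU control cells or their lentiCRISPRv2 knockout derivatives had been seeded at 500 cells per well into drug-stamped 384-well plates carrying a ~2100-compound library at 2 or 10 μM, in duplicate. Viability came from Cell Titer Glo luminescence, with averaged duplicate treatment wells normalised to duplicate control wells in the same plate position.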

[1] = 2uM, genotype: DNM1L knockout (sgDNM1L #1)
[2] = 2uM, genotype: sgCTRLA1 (non-targeting control)
[3] = 10uM, genotype: DNM1L knockout (sgDNM1L #1)
[4] = 10uM, genotype: sgCTRLA1 (non-targeting control)

SMILES | fractional viability [1] | fractional viability [2] | fractional viability [3] | fractional viability [4]
COc1ccc(CCN(C)CCCC(C#N)(c2ccc(OC)c(OC)c2)C(C)C)cc1OC (centres undefined) [Verapamil HCl] | 0.776 | 1.15 | 0.8 | 0.952
O=C(Nc1ccccc1)c1cc([N+](=O)[O-])ccc1Cl | 1.2 | 1.12 | 0.887 | 0.989
C=C1C(=O)O[C@@H]2/C=C(\C)CC/C=C(\C)CC[C@@H]12 [Costunolide] | 0.946 | 1.05 | 0.226 | 0.249
C[C@]12CCC(=O)C=C1CC[C@@H]1[C@@H]2[C@@H](O)C[C@@]2(C)[C@H]1CC[C@]2(O)C(=O)CO [Hydrocortisone] | 1.09 | 1.12 | 1.07 | 1.06
C=CC(=O)Nc1cccc(C)c1Nc1ncc2cc(-c3c(Cl)c(OC)cc(OC)c3Cl)ccc2n1 | 0.616 | 0.744 | 0.173 | 0.202
O=C(CCc1ccc(O)cc1)c1c(O)cc(O)cc1O[C@@H]1O[C@H](CO)[C@@H](O)[C@H](O)[C@H]1O [Phlorizin] | 0.791 | 1.09 | 0.89 | 0.975
COc1ccccc1C(=O)Nc1cc2c(cc1N1CCCC1)n(C)c(=O)n2C | 1.05 | 1.07 | 1.02 | 0.778
CN(N=O)C(=O)NC1C(O)OC(CO)C(O)C1O (centres undefined) [Streptozotocin (STZ)] | 1.1 | 1.2 | 0.905 | 1.2
Oc1ncnc2[nH]ncc12 [Allopurinol] | 0.988 | 1.05 | 0.917 | 0.912
C=C[C@]1(C)C[C@@H](OC(=O)CS[C@@H]2C[C@H]3CC[C@@H](C2)N3C)[C@]2(C)[C@H](C)CC[C@]3(CCC(=O)[C@H]32)[C@@H](C)[C@@H]1O [Retapamulin] | 0.735 | 0.778 | 0.486 | 0.466
C[N+]1(C)[C@@H]2CC[C@H]1C[C@@H](OC(=O)C(O)c1ccccc1)C2 (some centres undefined) [Homatropine Methylbromide] | 1.04 | 1.07 | 0.761 | 1.02
COC(=O)C1=C(C)NC(C)=C(C(=O)OCCN2CCN(C(c3ccccc3)c3ccccc3)CC2)C1c1cccc([N+](=O)[O-])c1 (centres undefined) [Manidipine] | 0.854 | 1.13 | 0.28 | 0.562
COC(=O)C1=C(C)NC(C)=C(C(=O)OCCN2CCN(C(c3ccccc3)c3ccccc3)CC2)C1c1cccc([N+](=O)[O-])c1 (centres undefined) [Manidipine 2HCl] | 0.91 | 1.13 | 0.385 | 0.876
CC(C)N(C[C@H]1O[C@@H](n2cnc3c(N)ncnc32)[C@H](O)[C@@H]1O)[C@H]1C[C@@H](CCc2nc3cc(C(C)(C)C)ccc3[nH]2)C1 | 0.89 | 1.02 | 0.757 | 1.07
COC(c1ccccc1)(c1ccccc1)[C@H](Oc1nc(C)cc(C)n1)C(=O)O [Ambrisentan] | 0.892 | 1.16 | 0.88 | 1.14
O=C(/C=C/c1ccc2ccccc2n1)c1ccncc1 | 0.0494 | 0.0683 | 0.0258 | 0.0162
CC(=O)Nc1ccccc1 [Acetanilide] | 0.896 | 1.08 | 0.878 | 1.14
Cc1cc(C(N)=O)ccc1-n1c(CCC(=O)O)ccc1-c1ccc(-n2ccnc2)cc1 | 0.883 | 0.888 | 0.745 | 0.764
COC(=O)C[C@H](NC(=O)[C@H](C)NC(=O)[C@@H](NC(=O)OCc1ccccc1)C(C)C)C(=O)CF | 0.89 | 1.14 | 0.837 | 1.1

SMILES | fractional viability [1] | fractional viability [2] | fractional viability [3] | fractional viability [4]
O=C(N/N=C/c1cc(O)c(O)cc1O)c1cc2ccccc2cc1O [Dyngo-4a] | 0.912 | 1.05 | 0.857 | 0.867
CC(C(=O)O)c1ccc2c(c1)Cc1cccnc1O2 (centres undefined) [Pranoprofen] | 1.05 | 1.11 | 0.893 | 1.15
Clc1ccc(NN=C(c2ccccc2)c2ccccn2)nc1 | 0.116 | 0.0468 | 0.0355 | 0.0108
C[N+]1(C)[C@@H]2C[C@@H](OC(=O)C(O)(c3cccs3)c3cccs3)C[C@H]1[C@@H]1O[C@@H]12 [Tiotropium Bromide hydrate] | 1.03 | 0.998 | 0.94 | 0.995
O=C[C@H](O)[C@@H](O)[C@H](O)CO [Xylose] | 1 | 1.17 | 0.965 | 1.04
CC(=O)O[C@]1(C(C)=O)CC[C@H]2[C@@H]3C[C@H](C)C4=CC(=O)C=C[C@]4(C)[C@@]3(F)[C@@H](O)C[C@@]21C [Fluorometholone Acetate] | 0.938 | 1.07 | 0.907 | 1
COc1ccc([C@@H]2CC(=O)c3c(O)cc(O[C@@H]4O[C@H](CO[C@@H]5O[C@@H](C)[C@H](O)[C@@H](O)[C@H]5O)[C@@H](O)[C@H](O)[C@H]4O)cc3O2)cc1O [Hesperidin] | 1.06 | 1.03 | 0.99 | 1.01
O=c1cc(N2CCOCC2)oc2c(-c3cccc4c3sc3ccccc34)cccc12 | 0.678 | 0.761 | 0.425 | 0.47
CC(C)(C(=O)O)c1ccc(C(O)CCCN2CCC(C(O)(c3ccccc3)c3ccccc3)CC2)cc1 (centres undefined) [Fexofenadine HCl] | 1.06 | 1.19 | 0.89 | 0.99
Cc1cc(NC(=O)Nc2ccc(N(C)C)cc2)c2cc(F)cc(F)c2n1 | 0.844 | 1.04 | 0.801 | 0.614
Cc1onc(-c2c(Cl)cccc2Cl)c1C(=O)N[C@@H]1C(=O)N2[C@@H]1SC(C)(C)[C@@H]2C(=O)O [Dicloxacillin Sodium] | 0.943 | 1.02 | 0.986 | 1.06
Cn1cc(-c2ccc3ncc(Cc4ccc5ncccc5c4)n3n2)cn1 | 1.11 | 1.06 | 0.992 | 1.17
CC1C(=O)OC2C(O)C34C5CC(C(C)(C)C)C36C(OC(=O)C6O)OC4(C(=O)O5)C12O (centres undefined) [Ginkgolide B] | 1.06 | 1.12 | 0.987 | 1.18
CN(C)/N=N/c1[nH]cnc1C(N)=O [Dacarbazine] | 1.09 | 1 | 1.07 | 1.2
Cc1oncc1C(=O)Nc1ccc(C(F)(F)F)cc1 [Leflunomide] | 0.985 | 1.08 | 0.599 | 0.768
O=C(O)c1cccnc1Nc1cccc(C(F)(F)F)c1 [Niflumic acid] | 1.09 | 1.18 | 0.803 | 1.14
CC1CC(OC(=O)C(O)c2ccccc2)CC(C)(C)C1 (centres undefined) [Cyclandelate] | 1.05 | 1.01 | 0.64 | 0.953
CC(CCc1ccccc1)NCC(O)c1ccc(O)c(C(N)=O)c1 (centres undefined) [Labetalol HCl] | 0.755 | 1.15 | 0.743 | 1.02
CCOC(=O)[C@H](CCc1ccccc1)N[C@@H](C)C(=O)N1Cc2ccccc2C[C@H]1C(=O)O [Quinapril HCl] | 0.996 | 1.11 | 0.859 | 1.02

SMILES | fractional viability [1] | fractional viability [2] | fractional viability [3] | fractional viability [4]
CC1(C)S[C@@H]2[C@H](NC(=O)[C@H](NC(=O)N3CCNC3=O)c3ccccc3)C(=O)N2[C@H]1C(=O)O [Azlocillin sodium salt] | 1.09 | 1.05 | 0.949 | 1.09
O=C1[C@H](Cc2ccc(O)cc2)N2C(=O)CCN(C(=O)NCc3ccccc3)[C@H]2CN1Cc1cccc2ccccc12 | 0.579 | 0.861 | 0.212 | 0.19
CCn1c2ccccc2c2cc(Nc3ccnc(NCCCN4CCOCC4)n3)ccc21 | 0.978 | 0.995 | 0.0528 | 0.0794
CC(C)OC(=O)[C@H](C)N[P@](=O)(OC[C@H]1O[C@@H](n2ccc(=O)[nH]c2=O)[C@](C)(F)[C@@H]1O)Oc1ccccc1 [Sofosbuvir (PSI-7977, GS-7977)] | 1.27 | 1.14 | 0.85 | 1.04
Nc1nc2c(ncn2[C@@H]2O[C@H](CO)[C@@H](O)[C@H]2O)c(=O)[nH]1 [Guanosine] | 0.755 | 0.929 | 0.7 | 0.845
Nc1[nH]nc2nnc(-c3c(-c4ccccc4)nn4ccccc34)cc12 | 0.851 | 1.01 | 1.04 | 0.887
COc1cc(N2CCC(N)CC2)ccc1Nc1ncc(Cl)c(-c2c[nH]c3ccccc23)n1 | 0.359 | 0.386 | 0.0459 | 0.0363
CCOC(=O)n1ccn(C)c1=S [Carbimazole] | 0.929 | 1.04 | 0.844 | 0.994
Cc1cc(NS(=O)(=O)c2ccc(N)cc2)no1 [Sulfamethoxazole] | 1.02 | 1.22 | 0.884 | 1.1
CC(C)(C)C(=O)C(Oc1ccc(Cl)cc1)n1ccnc1 (centres undefined) [Climbazole] | 0.805 | 1.06 | 0.641 | 0.924
CC(C)N(CCCNC(=O)Nc1ccc(C(C)(C)C)cc1)C[C@H]1O[C@@H](n2cc(Br)c3c(N)ncnc32)[C@H](O)[C@@H]1O | 0.87 | 1.15 | 0.732 | 1.04
CC1(C)S[C@@H]2[C@H](NC(=O)C(C(=O)O)c3ccccc3)C(=O)N2[C@H]1C(=O)O (some centres undefined) [Carbenicillin disodium] | 1.15 | 1.17 | 0.85 | 1.07
O=C(CCCCCN1C(=O)c2cccc3cccc(c23)C1=O)NO [Scriptaid] | 0.411 | 0.51 | 0.108 | 0.109
C=C[C@@]1(C)CC(=O)[C@]2(O)[C@@]3(C)[C@@H](O)CCC(C)(C)[C@@H]3[C@H](O)[C@H](OC(C)=O)[C@@]2(C)O1 [Forskolin] | 0.984 | 0.895 | 0.893 | 1.07
Cc1cc(OCCCS(C)(=O)=O)cc(C)c1-c1cccc(COc2ccc3c(c2)OC[C@H]3CC(=O)O)c1 | 0.923 | 1.2 | 0.893 | 1.12
CCN(CC)C(=S)SSC(=S)N(CC)CC [Disulfiram] | 0.456 | 0.291 | 0.0708 | 0.0241
COc1cc2/c(=N/c3ccc(Br)cc3F)nc[nH]c2cc1OCC1CCN(C)CC1 [Vandetanib (ZD6474)] | 1.07 | 1.05 | 0.264 | 0.266
O=c1cc(-c2ccccc2)oc2cc(O)cc(O)c12 [Chrysin] | 0.977 | 1.08 | 0.978 | 1.18
